# Assay results taken from PMC4336329 (PLoS ONE, 2015).
# The campaign covered roughly 310,000 compounds. About 2,200 (0.71%) showed an effect of 50% or more. Effects have a minus sign here. The list shows a part of the results.
# Biological target: human ether-à-go-go-related gene (hERG) potassium channel (human, UniProt Q12809)
# Test: primary screen, population patch clamp on CHO cells stably expressing hERG
# Chain of human ether-à-go-go-related gene (hERG) potassium channel (Q12809 whole entry, looked up): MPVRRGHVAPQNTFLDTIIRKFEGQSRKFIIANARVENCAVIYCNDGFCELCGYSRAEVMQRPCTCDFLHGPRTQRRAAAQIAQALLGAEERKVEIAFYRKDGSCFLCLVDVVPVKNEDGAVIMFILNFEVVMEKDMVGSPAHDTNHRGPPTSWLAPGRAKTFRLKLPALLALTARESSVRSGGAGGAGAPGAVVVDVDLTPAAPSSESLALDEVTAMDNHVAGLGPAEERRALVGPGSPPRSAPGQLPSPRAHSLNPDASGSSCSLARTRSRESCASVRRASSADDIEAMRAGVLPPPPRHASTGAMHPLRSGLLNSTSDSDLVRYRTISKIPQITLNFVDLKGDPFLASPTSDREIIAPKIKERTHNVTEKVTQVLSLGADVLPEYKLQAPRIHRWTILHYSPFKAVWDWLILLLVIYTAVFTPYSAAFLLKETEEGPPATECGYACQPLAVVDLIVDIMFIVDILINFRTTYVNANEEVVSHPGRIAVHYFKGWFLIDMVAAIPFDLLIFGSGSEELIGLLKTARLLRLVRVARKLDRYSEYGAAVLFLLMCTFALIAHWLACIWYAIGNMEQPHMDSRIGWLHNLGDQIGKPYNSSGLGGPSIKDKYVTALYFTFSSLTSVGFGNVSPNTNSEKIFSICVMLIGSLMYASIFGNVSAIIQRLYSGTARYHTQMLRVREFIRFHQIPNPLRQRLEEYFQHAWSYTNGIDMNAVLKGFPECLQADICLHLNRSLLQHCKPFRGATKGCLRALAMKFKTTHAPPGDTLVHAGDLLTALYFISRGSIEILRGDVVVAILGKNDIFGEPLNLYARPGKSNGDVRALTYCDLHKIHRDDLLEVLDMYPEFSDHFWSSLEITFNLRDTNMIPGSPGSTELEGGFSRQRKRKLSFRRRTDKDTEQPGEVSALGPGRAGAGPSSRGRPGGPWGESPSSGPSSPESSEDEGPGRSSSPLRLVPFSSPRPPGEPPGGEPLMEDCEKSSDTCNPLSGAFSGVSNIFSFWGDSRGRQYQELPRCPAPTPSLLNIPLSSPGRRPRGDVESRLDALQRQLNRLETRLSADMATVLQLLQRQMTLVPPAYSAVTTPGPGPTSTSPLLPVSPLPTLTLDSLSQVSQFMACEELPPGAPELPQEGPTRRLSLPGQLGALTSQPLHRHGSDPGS
row,SMILES,"hERG current change (%, negative = inhibition) at 1uM"
1,COCCNC(=O)C(c1ccc(C)cc1)N(C(=O)CCC(=O)Nc1ccccn1)c1ccc(F)cc1 (stereo not shown),4.28%
2,Cc1cccc2cc(C#N)c(N3CCCC3)nc12,13.2%
3,CCOc1ccc(NC(=S)NCCCN2CCOCC2)cc1,9%
4,CCOC(=O)N1CCC(NC(=O)C2CCC(Cn3c(=O)[nH]c4ccccc4c3=O)CC2)CC1 (stereo not shown),1.61%
5,O=C(NNC1CC(=O)N(c2ccc(Br)cc2)C1=O)c1ccccn1 (stereo not shown),7.26%
6,CCc1ccn2cc(-c3ccc4c(c3)OCO4)nc2c1,9.29%
7,O=C(Cn1nnc(-c2cccs2)n1)OC1CCCCC1,7.88%
8,O=C(COc1cccc2ccccc12)NNC(=O)c1cccs1,8.8%
9,CCc1ccc(OCC(=O)N2CCN(c3ccccc3F)CC2)cc1,18.5%
10,COc1ccc(Cc2noc(CN3CCN(C4CCc5ccccc5C4)CC3)n2)cc1OC (stereo not shown),-32%
11,COc1ccc(-n2nc(C(=O)NCC(=O)N3CCCCCC3)c3ccccc3c2=O)cc1Cl,6.12%
12,CCOC(=O)C1CCN(S(=O)(=O)c2ccc3c(c2)N(C(C)=O)CCO3)CC1,-31.2%
13,Cc1ccnc(NC(=O)CCC(=O)N(CC(=O)NC(C)(C)C)c2ccc(F)c(Cl)c2)c1,16%
14,CC1(C)CC(NC(=O)C2CCN(S(=O)(=O)c3ccc(F)cc3)CC2)CC(C)(C)N1,16.9%
15,O=Cc1cn(CC(=O)N2CCCc3ccccc32)c2ccccc12,17.3%
16,CCCN(CC(=O)Nc1ccc(C(N)=O)cc1)CC(=O)Nc1ccc(Cl)cc1Cl,3.6%
17,CN(C)C(CNc1ccc(C(N)=O)cc1[N+](=O)[O-])c1ccccc1 (stereo not shown),6.92%
18,N#CCn1nnc(-c2ccc3c(c2)OCO3)n1,6.15%
19,CCOc1cc(NC(=O)C2CCCO2)c(OCC)cc1NC(C)=O (stereo not shown),14.2%
20,CCOC(=O)c1sc(N(Cc2ccccc2)C(=O)CSc2nnc(C3CC3)n2N)nc1C,-5.91%
21,Cc1ccc(C(=O)N/C(=C\c2ccco2)C(=O)NCCN2CCOCC2)cc1,5.85%
22,CCC(C(=O)NCCN1CCN(C)CC1)n1c(C)c2cnn(-c3ccccc3)c(=O)c2c1C (stereo not shown),2.64%
23,O=C(COc1cc(=O)n2c(n1)SCCC2)c1ccccc1,-1.27%
24,CCOCCc1nnc(N)s1,8.55%
25,O=C(c1ccc(Cl)cc1)c1cnc(Nc2ccccc2Cl)s1,1.51%
